# According to the RNAGym collection of RNA variant scans (doi:10.7554/elife.90254):
# The source gives no read counts; variants with many changes may rest on few reads.
# B1: LINE1-mini (parent)
# chain: GGCAGAGCUCAACACAGCGUGGCAAAGUGGCUGUGGCUAGACUGCC
# Variants of: B1
# Experiment: self-cleavage, relative activity (ratio to wild type); higher = more cleavage; in vitro, sequencing; the parent is a self-cleaving ribozyme
row,Variant,self-cleavage
1,G2U A4U C15G A24C U34C U43C,0
2,G2C G30U C42A,0.18
3,G2U C8A A11U,0.03
4,G2U C8U A14U,0.05
5,G2C G36C C37A,0.02
6,G2U A6G G40U,0.02
7,G2U A6G A24U G44A,0.02
8,G2U A11C G22U G44C,0.02
9,G2U C3U G7A U28G,0.09
10,G2U C3A A4G A12C C15A G40C,0.01
11,G2C U32G G33U,0.11
12,G2U A4U A16U,0.08
13,G2U A11U C15U C31U A39G G40A,0
14,G2U A12G A16G G17C C45U,0.07
15,G2U C8A G40A,0.11
16,G2U A4G G17A G19U G33A A41G,0.13
17,G2U A16G G19U,0.06
18,G2C G33U U34A C42A,0.01
19,G2U A12G G33A G36U,0
20,G2U A24G A41U,0.08
21,G2U C8G C15G C23G G27A U32A U34A,0.02

row,Variant,self-cleavage
1,G2C U9G C13U A16G C42A,0.06
2,G2U A4G G17U A26C C31U G36U C37A A39G A41U,0.05
3,G2C U9C U20G G22U C42U,0.07
4,G2U C3G G36C U43A,0.24
5,G2U C3A G7U A16C U32A,0.08
6,G2U A6G G27U C37G,0.01
7,G2U C8A A41G,0.06
8,G2U C3G C13A A14C G22C,0.04
9,G2C U9G A12G G19C A25C U38G,0.03
10,G2U A16U G17U G27A,0.06
11,G2U A11U A14G G40C U43G,0.01
12,G2U A16G G19A C23A U43C C46U,0.11
13,G2U A4U C8G A16C G27U A39C C46U,0
14,G2C U9A G33U C46G,0.02
15,G2U A25G C31U G33U G40U,0.04
16,G2U A16C C45A,0.03
17,G2U A24G G29C G30A,0.24
18,G2U C3A C23A G27A C37G A39C C46U,0.02
19,G2U A4G G19A U34G,0.08
20,G2U A41U C42U,0.04
21,G2U A41U C42A,0.01

row,Variant,self-cleavage
1,G2U A26G G33C U34A G36U C45U,0.02
2,G2U A4U C13G A14U U20A G30U,0.1
3,G2U A11G C15A G22C G30U,0.01
4,G2U C3U C8G A25C G27A,0.03
5,G2U A12C U32A,0
6,G2C U9G U28G G40U,0.1
7,G2U A4G C18G,0.06
8,G2U A4G C15G G29A C46U,0.06
9,G2U C8G G17A C45U,0.03
10,G2U A24G C31G,0.03
11,G2U A6G G30U C45G,0.08
12,G2U A25U U43A,0.07
13,G2C G30A U34C,0.04
14,G2C G35U C42U,0.69
15,G2U C3G A24C U32G,0.01
16,G2C U28C C31U A41U,0.04
17,G2U A6C C15G,0.01
18,G2U A14U G17C C37A A39G A41G,0.03
19,G2U C8G A12U C13U,0.07
20,G2U A6G G21A G27A,0.25
21,G2U A16U G19A G44C C45A,0.01

row,Variant,self-cleavage
1,G2U A24C A25U U28G G30U,0.03
2,G2U C8G C10G A25G C45U C46G,0.02
3,G2U C3U U9A G22U,0.35
4,G2U A12C C18A G29A C31G,0
5,G2U A11G G17A,0
6,G2C U9A U38G,0.06
7,G2U A4G G19A,0.1
8,G2C U9G U20C C37A,0.19
9,G2U A6G G21A G22U,0.04
10,G2C U38A G40U C42U C46U,0.14
11,G2U C8A G21A,0.21
12,G2U C3G U34C U38A,0.04
13,G2C G40U C45U,0.2
14,G2U A12G U20A,0
15,G2U A12G U20C,0.02
16,G2U A6G C8A U28C G29C,0.04
17,G2C G27U G40U,0.11
18,G2U A4U C31U,0.04
19,G2U A4C A41C,0.02
20,G2C G33C G40U,0.03
